Assay results published in the supplement of paper PMC8728848.
This is one part of the list.

How the values were obtained:
Assay in all cases: glycan array binding signal (z-score within array); higher = stronger binding
Details in all cases: glycan notation: IUPAC condensed, linker removed
[1] = biological target: Gal6S(b1-4)Glc6S
Method in brief: (§1)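 Glycan array data were curated from 3228 arrays in the Consortium for Functional Glycomics database and kept only where the protein sequence was available. Glycan names were converted to IUPAC-condensed notation, and columns mapping to the same glycan were averaged. The binding signal is a within-array Z-score, averaged across arrays of the same protein sequence at different concentrations or buffers and across linkers. Negative Z-scores can be read as non-binding.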

[2] = biological target: Gal6S(b1-4)GlcNAc
Method in brief: as §1

[3] = biological target: Gal6S(b1-4)GlcNAc6S
Method in brief: as §1

[4] = biological target: GalNAc(a1-3)Gal
Method in brief: as §1

[5] = biological target: GalNAc(a1-3)GalNAc
Method in brief: as §1

[6] = biological target: GalNAc(a1-3)GalNAc(b1-3)Gal(a1-4)Gal(b1-4)Glc
Method in brief: as §1

[7] = biological target: GalNAc(a1-3)GalNAc(b1-3)Gal(a1-4)Gal(b1-4)GlcNAc
Method in brief: as §1

[8] = biological target: GalNAc(b1-3)Gal
Method in brief: as §1

[9] = biological target: GalNAc(b1-3)Gal(a1-4)Gal(b1-4)GlcNAc
Method in brief: as §1

[10] = biological target: GalNAc(b1-3)Gal(a1-4)Gal(b1-4)GlcNAc(b1-3)Gal(b1-4)Glc
Method in brief: as §1

[11] = biological target: GalNAc(b1-3)Gal(a1-6)Gal(b1-4)Glc
Method in brief: as §1

[12] = biological target: GalNAc(b1-3)GalNAc
Method in brief: as §1

[13] = biological target: GalNAc(b1-3)GlcNAc
Method in brief: as §1

[14] = biological target: GalNAc(b1-4)Gal(b1-4)Glc
Method in brief: as §1

[15] = biological target: GalNAc(b1-4)GlcNAc
Method in brief: as §1

[16] = biological target: GalNAc(b1-4)GlcNAc(b1-2)Man
Method in brief: as §1

[17] = biological target: GalNAc(b1-4)GlcNAc(b1-2)Man(a1-3)[GalNAc(b1-4)GlcNAc(b1-2)Man(a1-6)]Man(b1-4)GlcNAc(b1-4)GlcNAc
Method in brief: as §1

[18] = biological target: GalNAc(b1-4)GlcNAc(b1-3)GalNAc(b1-4)GlcNAc
Method in brief: as §1

[19] = biological target: GalNAc(b1-4)GlcNAc6S
Method in brief: as §1

[20] = biological target: GalNAc(b1-6)GalNAc
Method in brief: as §1

[21] = biological target: GalNAc3S(b1-4)GlcNAc
Method in brief: as §1

[22] = biological target: GalNAc3S(b1-4)GlcNAc3S
Method in brief: as §1

[23] = biological target: GalNAc3S(b1-4)[Fuc(a1-3)]GlcNAc
Method in brief: as §1

[24] = biological target: GalNAc4S6S(b1-4)GlcNAc
Method in brief: as §1

[25] = biological target: GalNAc6S(b1-4)GlcNAc
Method in brief: as §1

[26] = biological target: Glc(a1-4)Glc
Method in brief: as §1

[27] = biological target: Glc(a1-4)Glc(a1-4)Glc(a1-4)Glc
Method in brief: as §1

[28] = biological target: Glc(a1-6)Glc(a1-6)Glc
Method in brief: as §1

[29] = biological target: Glc(a1-6)Glc(a1-6)Glc(a1-6)Glc
Method in brief: as §1

[30] = biological target: Glc(b1-4)Glc
Method in brief: as §1

[31] = biological target: Glc(b1-6)Glc
Method in brief: as §1

[32] = biological target: GlcA(b1-3)Gal
Method in brief: as §1

[33] = biological target: GlcA(b1-3)GlcNAc
Method in brief: as §1

[34] = biological target: GlcA(b1-6)Gal
Method in brief: as §1

[35] = biological target: GlcA3S(b1-3)Gal(b1-4)GlcNAc(b1-2)Man
Method in brief: as §1

[36] = biological target: GlcA3S(b1-3)Gal(b1-4)GlcNAc(b1-3)Gal(b1-4)Glc
Method in brief: as §1

[37] = biological target: GlcNAc(a1-3)Gal(b1-4)GlcNAc
Method in brief: as §1

B1: PX9961T-pdi-555-33-555 (Parabacteroides distasonis) (protein)
chain: FDEETAFQSPTLVYVNTVASLYNNMFKIMGNDRHVYDLNTFSSDEAMLPCRIGDWEDGGLWQNIFLHRWGTMNDLTKNSWDFLYEQIGKCNQSVDKLQAFAEEQPDVEYFKVYLEEVRAVRAFFYYELLDLFARVPLVTSSTTPMSEVKQSERSVVFNFVRSELEEALPYLSDNRSNQKGEYYGRITKPVAYMILAKLALNAEVYADDNWTDGNRPAGKNIKFTVDGKEMNAWEATIAYVDKLEALGYKLQGNFSENFAVANETSVENIFTVPMDPVAYPDAKDYNLVRTRHYDHATAYGQSGWNGSCATVKAMNVFKFGTADEDPRCKLTYFTGEVTGPDGKTIYTEWDGQKVPLKYEPNAPKVYMDASDGLLVKTAGARMAKYEFDQNAQDGGNLHGNDCVIFRFADALLMKAEAKIRLGQNGDDEVNQVRNRVGAKPLQNVTLDTLLDERMLELAWEGVRRQDLIRFGKFTEATVDRYVGVKHFASSLDYQEDKTGYTTVFSIYADILSLNPNLTQNPGY
[1]
  glycan array binding signal (z-score): -0.372
[2]
  glycan array binding signal (z-score): -0.019
[3]
  glycan array binding signal (z-score): 0.07
[4]
  glycan array binding signal (z-score): -0.623
[5]
  glycan array binding signal (z-score): -0.388
[6]
  glycan array binding signal (z-score): 0.214
[7]
  glycan array binding signal (z-score): -0.368
[8]
  glycan array binding signal (z-score): -0.387
[9]
  glycan array binding signal (z-score): 0.642
[10]
  glycan array binding signal (z-score): 0.301
[11]
  glycan array binding signal (z-score): 0.464
[12]
  glycan array binding signal (z-score): 0.288
[13]
  glycan array binding signal (z-score): -0.214
[14]
  glycan array binding signal (z-score): 0
[15]
  glycan array binding signal (z-score): -0.058
[16]
  glycan array binding signal (z-score): -0.588
[17]
  glycan array binding signal (z-score): 0.877
[18]
  glycan array binding signal (z-score): 0.094
[19]
  glycan array binding signal (z-score): -0.349
[20]
  glycan array binding signal (z-score): -0.518
[21]
  glycan array binding signal (z-score): -0.622
[22]
  glycan array binding signal (z-score): -0.306
[23]
  glycan array binding signal (z-score): -0.836
[24]
  glycan array binding signal (z-score): -0.196
[25]
  glycan array binding signal (z-score): -0.073
[26]
  glycan array binding signal (z-score): -0.426
[27]
  glycan array binding signal (z-score): -0.315
[28]
  glycan array binding signal (z-score): 0.357
[29]
  glycan array binding signal (z-score): -0.341
[30]
  glycan array binding signal (z-score): -0.432
[31]
  glycan array binding signal (z-score): 0.449
[32]
  glycan array binding signal (z-score): -0.265
[33]
  glycan array binding signal (z-score): -0.422
[34]
  glycan array binding signal (z-score): -0.557
[35]
  glycan array binding signal (z-score): -0.676
[36]
  glycan array binding signal (z-score): -0.546
[37]
  glycan array binding signal (z-score): 0.406
